{"source": "the supplement of paper PMC11876631", "proteins": {"B1": {"name": "accA I115Q (protein)", "chain": "MSLNFLDFEQPIAELEAKIDSLTAVSRQDEKLDINIDEEVHRLREKSVELTRKIFADLGAWQIAQLARHPQRPYTLDYVRLAFDEFDELAGDRAYADDKAIVGGIARLDGRPVMQIGHQKGRETKEKIRRNFGMPAPEGYRKALRLMQMAERFKMPIITFIDTPGAYPGVGAEERGQSEAIARNLREMSRLGVPVVCTVIGEGGSGGALAIGVGDKVNMLQYSTYSVISPEGCASILWKSADKAPLAAEAMGIIAPRLKELKLIDSIIPEPLGGAHRNPEAMAASLKAQLLADLADLDVLSTEDLKNRRYQRLMSYGYA"}, "B2": {"name": "accD V110D (protein)", "chain": "MSWIERIKSNITPTRKASIPEGVWTKCDSCGQVLYRAELERNLEVCPKCDHHMRMTARNRLHSLLDEGSLVELGSELEPKDVLKFRDSKKYKDRLASAQKETGEKDALVDMKGTLYGMPVVAAAFEFAFMGGSMGSVVGARFVRAVEQALEDNCPLICFSASGGARMQEALMSLMQMAKTSAALAKMQERGLPYISVLTDPTMGGVSASFAMLGDLNIAEPKALIGFAGPRVIEQTVREKLPPGFQRSEFLIEKGAIDMIVRRPEMRLKLASILAKLMNLPAPNPEAPREGVVVPPVPDQEPEA"}, "B3": {"name": "secY I150A (protein)", "chain": "MAKQPGLDFQSAKGGLGELKRRLLFVIGALIVFRIGSFIPIPGIDAAVLAKLLEQQRGTIIEMFNMFSGGALSRASIFALGIMPYISASIIIQLLTVVHPTLAEIKKEGESGRRKISQYTRYGTLVLAIFQSIGIATGLPNMPGMQGLVANPGFAFYFTAVVSLVTGTMFLMWLGEQITERGIGNGISIIIFAGIVAGLPPAIAHTIEQARQGDLHFLVLLLVAVLVFAVTFFVVFVERGQRRIVVNYAKRQQGRRVYAAQSTHLPLKVNMAGVIPAIFASSIILFPATIASWFGGGTGWNWLTTISLYLQPGQPLYVLLYASAIIFFCFFYTALVFNPRETADNLKKSGAFVPGIRPGEQTAKYIDKVMTRLTLVGALYITFICLIPEFMRDAMKVPFYFGGTSLLIVVVVIMDFMAQVQTLMMSSQYESALKKANLKGYGR"}, "B4": {"name": "secY I150W (protein)", "chain": "B3 chain with A150W"}, "B5": {"name": "secY I150Q (protein)", "chain": "B3 chain with A150Q"}, "B6": {"name": "secY I150D (protein)", "chain": "B3 chain with A150D"}, "B7": {"name": "secY I150P (protein)", "chain": "B3 chain with A150P"}, "B8": {"name": "secY F158W (protein)", "chain": "B3 chain with A150I, F158W"}, "B9": {"name": "secY F158Q (protein)", "chain": "B3 chain with A150I, F158Q"}, "B10": {"name": "accD V110P (protein)", "chain": "B2 chain with D110P"}, "B11": {"name": "secY L285A (protein)", "chain": "B3 chain with A150I, L285A"}, "B12": {"name": "secY L285W (protein)", "chain": "B3 chain with A150I, L285W"}}, "note": "Positions count from the first letter of the chain named. Names may count otherwise. ± gives the standard deviation of the averaged measurements. Laboratory Escherichia coli strains with one amino-acid change in an essential protein, pooled on minimal glucose agar with carbenicillin or gentamicin at twice the control MIC (plus kanamycin and chloramphenicol for the plasmids), 48 h. Fold change of barcode share against drug-free plates; higher = less susceptible. Active = above 20 in both replicates (the paper's putatively resistant). '<' = one read or none on drug, '>' = one read or none on a drug-free plate. Shares are relative, so most strains fall below 1 when a few take over. Listed are strains with at least 15 reads on both drug-free plates, and hits; most hits rest on fewer reference reads. Replicate rank correlation about 0.5. Edits are read from barcodes."}
{"molecular_target": "Escherichia coli (laboratory strain)", "assay": "barcode share on antibiotic plates over drug-free plates; higher = less susceptible", "details": "antibiotic: carbenicillin; 2× MIC (3.1 µg/mL)", "procedure": "(§1)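 A pool of E. coli strains, each edited to carry one amino-acid change in an essential protein, was grown for 48 h on minimal glucose agar with or without antibiotic; strain barcodes were sequenced; mean of two replicates.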"}
{"protein": "B1", "fold change of barcode share": "1.3 ± 0.51"}
{"protein": "B2", "fold change of barcode share": "0.588 ± 0.024"}
{"protein": "B3", "fold change of barcode share": "0.303 ± 0.043"}
{"protein": "B4", "fold change of barcode share": "0.285 ± 0.053"}
{"protein": "B5", "fold change of barcode share": "0.218 ± 0.098"}
{"protein": "B6", "fold change of barcode share": "0.262 ± 0.16"}
{"protein": "B7", "fold change of barcode share": "0.415 ± 0.22"}
{"protein": "B8", "fold change of barcode share": "0.298 ± 0.15"}
{"protein": "B9", "fold change of barcode share": "0.232 ± 0.049"}
{"protein": "B10", "fold change of barcode share": "0.404 ± 0.15"}
{"protein": "B11", "fold change of barcode share": "0.305 ± 0.11"}
{"protein": "B12", "fold change of barcode share": "0.261 ± 0.09"}
{"molecular_target": "Escherichia coli (laboratory strain)", "assay": "barcode share on antibiotic plates over drug-free plates; higher = less susceptible", "details": "antibiotic: gentamicin; 2× MIC (MIC 0.45 µg/mL)", "procedure": "as §1"}
{"protein": "B2", "fold change of barcode share": "0.0202 ± 0.014"}
{"protein": "B3", "fold change of barcode share": "< 0.00413"}
{"protein": "B4", "fold change of barcode share": "0.00526 ± 0.0011"}
{"protein": "B5", "fold change of barcode share": "0.00551 ± 0.00017"}
{"protein": "B6", "fold change of barcode share": "< 0.0076"}
{"protein": "B7", "fold change of barcode share": "< 0.00372"}
{"protein": "B8", "fold change of barcode share": "< 0.0127"}
{"protein": "B10", "fold change of barcode share": "< 0.00738"}
{"protein": "B11", "fold change of barcode share": "0.00644 ± 0.0045"}
{"protein": "B12", "fold change of barcode share": "0.00806 ± 0.0003"}
